Source: PubChem BioAssay AID686978 (National Center for Advancing Translational Sciences (NCATS), 2013)
Out of some 420,000 compounds screened, about 64,000 (15%) were called active. This list was built around the results that the source calls inconclusive (neither active nor inactive); the mix of calls is not that of the screen. The call rests on the fitted dose curve; in most records, active means well fitted inhibition curve with a large enough effect; inconclusive means small, poorly fitted or top-dose-only effect; inactive means flat fitted curve, though single readings scatter. Potencies of inconclusive entries are left out as doubtful fits.

Assay: qHTS for Inhibitors of human tyrosyl-DNA phosphodiesterase 1 (TDP1): qHTS in cells in absence of CPT; further: nearly all actives have a fitted effect of over 55% in size
Settings: DT40 Tdp1-/- hTDP1 cells, no CPT, ATP luminescence, 48 h; activity change, negative = growth inhibition: at 46.2 µM (top of the series) unless noted
Procedure, shortened: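 Seeded 400 DT40-hTDP1 cells/well (vehicle DMSO, no 20 nM CPT); pinned compounds; ≥48 hr at 37 °C; CellTiter-Glo luminescence as viability measure.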
On the % scale 0 is the no-effect control and ±100 the full control effect; potency means the concentration at half of the fitted maximal effect; tags describe the fitted curve by direction and shape.

Row | Compound | Potency | activity change, negative = growth inhibition
1 | COc1ccc(C)cc1NC(=O)c1ccc(CN2CCc3ccccc3C2)cc1 | inconclusive [inhibitor, single point] | –
2 | CCc1ccc(S(=O)(=O)c2cn(Cc3ccccc3)c3cc(N4CCCC4)c(F)cc3c2=O)cc1 | inconclusive [inhibitor, single point] | –
3 | NC(c1csc(Nc2nncc3ccccc23)n1)C1CCCCC1 (stereo not given) | active: 5.8 µM | –
4 | Clc1ccc2c(c1)-n1cc(-c3ccccc3)nc1CO2 | inconclusive [inhibitor, single point] | –
5 | COc1ccc(Cl)cc1S(=O)(=O)Nc1ccc2[nH]c(=O)[nH]c2c1 | active: 16.4 µM | –
6 | COc1ccc(N=C2SCC(c3ccccc3)=NN2C)cc1 | – | inconclusive: -37.3% [inhibitor]
7 | CCc1nn(C(C)C(=O)NC(C)CCc2ccco2)c(=O)c2cc3occc3n12 (stereo not given) | – | inactive: -24.5%
8 | O=C1CCC(C(=O)OCC(=O)N2N=C3/C(=C/c4ccccc4)CCCC3C2c2ccccc2)N1 (stereo not given) | active: 23.1 µM | –
9 | CCCCN(C(=O)c1ccc([N+](=O)[O-])s1)c1c(N)n(CCCC)c(=O)[nH]c1=O | inconclusive [inhibitor, single point] | –
10 | CCOc1cc(/C=N/NC(=O)c2cccnc2)ccc1OCC(=O)N1CCOCC1 | – | inactive: -16.5%
11 | COc1cc(CN2CCNC(=O)C2CC(=O)N(C)Cc2cccnc2)cc(OC)c1 (stereo not given) | inconclusive [inhibitor, single point] | –
12 | COc1ccc(NC(=S)N2C3CCC2CC(NC(=O)NC24CC5CC(CC(C5)C2)C4)C3)c(OC)c1 (stereo not given) | inconclusive [inhibitor, single point] | –
13 | Nc1nc(-c2ccccc2)c(N=Nc2ccccc2Cl)s1 | active: 16.4 µM | –
14 | COc1ccc2nc(C)cc(Nc3ccccc3OC)c2c1 | inconclusive [inhibitor, partial curve] | –
15 | O=C(c1csnn1)N1CCC2(CCCN(c3ccncc3)C2)CC1 | inconclusive [inhibitor, single point] | –
16 | COc1ccccc1Cc1c(-c2ccco2)nc2ccc(Cl)cn12 | active: 23.1 µM | –
17 | Cc1ccc(CCNC(=O)Cn2c(-c3cccs3)cc3ccccc32)cc1 | inconclusive [inhibitor, single point] | –
18 | OCc1ccnc2oc3ccccc3c12 | – | inactive: 2.49%
19 | COc1ccc(C(=O)C[C@@H]2OC3CCCCC3N2S(=O)(=O)c2ccc(C)cc2)cc1OC (stereo not given in full) | active: 16.4 µM | –
20 | O=C1C(Cc2ccccc2)SC(=Nc2ccccc2)N1c1ccccc1 (stereo not given) | inconclusive [inhibitor, single point] | –
